Hit rate of the full screen: of about 3,200 compounds, about 75 (2%) showed an effect of 50% or more. The list shows a part of the results.
system: T1, S. aureus MSSA476; parameters: species or system S. aureus MSSA476 (TSB) or V. cholerae SAD30 (LB); 384-well bacterial growth screen at 25 uM, OD600 relative to DMSO control; details: relative growth, OD600, TSB; 25 µM; inhibitor
T1 construct: MSSA476

SMILES | % of control remaining [%]
O=C(CCl)NCc1ccc(C(=O)N2CCCC2)cc1 [6-G04, 2-chloro-N-{[4-(pyrrolidine-1-carbonyl)phenyl]methyl}acetamide] | 91.5122
COc1ccc(C2=NN(C(=O)CCl)C(c3ccco3)C2)cc1 (stereo not drawn) [4-N19, 2-chloro-1-[5-(furan-2-yl)-3-(4-methoxyphenyl)-4,5-dihydro-1H-pyrazol-1-yl]ethan-1-one] | 78.5136
C=CC(=O)NCC12CC3CC(CC(C3)C1)C2 [1-F17, N-[(adamantan-1-yl)methyl]prop-2-enamide] | 100.923
COc1cc(S(=O)(=O)N2CCOCC2)ccc1NC(=O)CCl [6-L12, 2-chloro-N-[2-methoxy-4-(morpholine-4-sulfonyl)phenyl]acetamide] | 90.4878
C/C(O)=C(\C#N)C(=O)Nc1ccc(-c2ccccc2Cl)cc1 [9-P22, (2Z)-N-{2'-chloro-[1,1'-biphenyl]-4-yl}-2-cyano-3-hydroxybut-2-enamide] | 50.9363
Cc1csc(C2(NC(=O)CCl)CCOCC2)n1 [7-J03, 2-chloro-N-[4-(4-methyl-1,3-thiazol-2-yl)oxan-4-yl]acetamide] | 98.2732
CC(Cl)C(=O)N1CCc2sccc2C1c1cccs1 (stereo not drawn) [7-K07, 2-chloro-1-[4-(thiophen-2-yl)-4H,5H,6H,7H-thieno[3,2-c]pyridin-5-yl]propan-1-one] | 95.7614
CCOc1cc2c(cc1C=C(C#N)C(N)=O)OC(C)C2 (stereo not drawn) [9-D04, 2-cyano-3-(5-ethoxy-2-methyl-2,3-dihydro-1-benzofuran-6-yl)prop-2-enamide] | 91.985
CC(Cl)C(=O)N1CCN(Cc2ccc(C(F)(F)F)cc2)C(=O)C1 (stereo not drawn) [6-N19, 4-(2-chloropropanoyl)-1-{[4-(trifluoromethyl)phenyl]methyl}piperazin-2-one] | 107.22
N#CC(=Cc1ccc(O)cc1)C(=O)NCc1ccc(Cl)cc1 [8-B16, N-[(4-chlorophenyl)methyl]-2-cyano-3-(4-hydroxyphenyl)prop-2-enamide] | 76.0166
CC(Cl)C(=O)N1CCOCC1c1cccn1C (stereo not drawn) [7-A09, 2-chloro-1-[3-(1-methyl-1H-pyrrol-2-yl)morpholin-4-yl]propan-1-one] | 81.9466
CCc1ccccc1NC(=O)CN(C)C(=O)CCl [6-L06, 2-chloro-N-{[(2-ethylphenyl)carbamoyl]methyl}-N-methylacetamide] | 98.3415
CC(NC(=O)CCl)C(=O)N1c2ccccc2CC1C (stereo not drawn) [7-N16, 2-chloro-N-[1-(2-methyl-2,3-dihydro-1H-indol-1-yl)-1-oxopropan-2-yl]acetamide] | 94.5055
N#CC(=Cc1ccncc1)C(=O)Nc1ccccc1Cl [8-N17, N-(2-chlorophenyl)-2-cyano-3-(pyridin-4-yl)prop-2-enamide] | 114.855
C=CC(=O)N1CC(n2nc(C)cc2C)C1 [3-B04, 1-[3-(3,5-dimethyl-1H-pyrazol-1-yl)azetidin-1-yl]prop-2-en-1-one] | 100.305
CC(Cl)C(=O)N1CCN(C(=O)c2ccc3ccccc3c2)CC1 (stereo not drawn) [7-E07, 2-chloro-1-[4-(naphthalene-2-carbonyl)piperazin-1-yl]propan-1-one] | 102.983
C=CC(=O)Nc1ccc(N2CCN(CC)CC2)cc1 [1-D12, N-[4-(4-ethylpiperazin-1-yl)phenyl]prop-2-enamide] | 102.33
Cc1cc(C(=O)CCl)co1 [10-A13, 2-chloro-1-(5-methylfuran-3-yl)ethan-1-one] | 133.438
COc1ccc(C=C(C#N)C(=O)Nc2nccs2)cc1O [8-G19, 2-cyano-3-(3-hydroxy-4-methoxyphenyl)-N-(1,3-thiazol-2-yl)prop-2-enamide] | 82.3237
C=CC(=O)NCC1(C)CCS(=O)(=O)CC1 [1-G16, N-[(4-methyl-1,1-dioxo-1lambda6-thian-4-yl)methyl]prop-2-enamide] | 99.5165
O=C(CCl)Nc1nc(-c2cc(F)ccc2F)cs1 [4-L22, 2-chloro-N-[4-(2,5-difluorophenyl)-1,3-thiazol-2-yl]acetamide] | 123.869
C=CC(=O)NCC1CCCC1N1CCCS1(=O)=O (stereo not drawn) [3-L13, N-{[2-(1,1-dioxo-1lambda6,2-thiazolidin-2-yl)cyclopentyl]methyl}prop-2-enamide] | 114.933
C=CC(=O)NC(C)c1cc2cnccc2o1 (stereo not drawn) [1-B08, N-(1-{furo[3,2-c]pyridin-2-yl}ethyl)prop-2-enamide] | 107.604

SMILES | % of control remaining [%]
CC(NC(=O)CCl)c1cn(C)c2cc(Cl)ccc12 (stereo not drawn) [5-E11, 2-chloro-N-[1-(6-chloro-1-methyl-1H-indol-3-yl)ethyl]acetamide] | 99.4536
C=CC(=O)Nc1ccc2nc(O)n(C3CC3)c2c1 [2-K16, N-(1-cyclopropyl-2-hydroxy-1H-1,3-benzodiazol-6-yl)prop-2-enamide] | 114.534
CC(Cl)C(=O)N(C)C1CCS(=O)(=O)CC1 (stereo not drawn) [6-J21, 2-chloro-N-(1,1-dioxo-1lambda6-thian-4-yl)-N-methylpropanamide] | 102.098
C=CC(=O)N1CCn2c(nnc2C(F)(F)F)C1 [1-D18, 1-[3-(trifluoromethyl)-5H,6H,7H,8H-[1,2,4]triazolo[4,3-a]pyrazin-7-yl]prop-2-en-1-one] | 102.33
CNC(=O)C(C#N)=Cc1cccc(C)c1C [9-D14, 2-cyano-3-(2,3-dimethylphenyl)-N-methylprop-2-enamide] | 91.0861
C=CC(=O)NCc1ccc(OC)cc1 [1-K10, N-[(4-methoxyphenyl)methyl]prop-2-enamide] | 113.934
CC(Cl)C(=O)N1CCC(C(=O)c2cccs2)CC1 (stereo not drawn) [7-L13, 2-chloro-1-[4-(thiophene-2-carbonyl)piperidin-1-yl]propan-1-one] | 103.925
N#CC(=Cc1c[nH]nc1-c1ccccc1F)C(=O)Nc1ccccc1F [8-H06, 2-cyano-N-(2-fluorophenyl)-3-[3-(2-fluorophenyl)-1H-pyrazol-4-yl]prop-2-enamide] | 91.9502
CC(Cl)C(=O)NCCc1cnc2c(Cl)cnn2c1 (stereo not drawn) [7-M18, 2-chloro-N-(2-{3-chloropyrazolo[1,5-a]pyrimidin-6-yl}ethyl)propanamide] | 105.495
O=C(CCl)NC(c1ccccc1)c1ccccc1 [6-M12, 2-chloro-N-(diphenylmethyl)acetamide] | 103.463
C=CC(=O)N1Cc2c(C(=O)O)cnn2CC1C (stereo not drawn) [3-N18, 6-methyl-5-(prop-2-enoyl)-4H,5H,6H,7H-pyrazolo[1,5-a]pyrazine-3-carboxylic acid] | 98.9116
C=CC(=O)NC(C)(C)c1ccc(S(N)(=O)=O)cc1F [2-P17, N-[2-(2-fluoro-4-sulfamoylphenyl)propan-2-yl]prop-2-enamide] | 90.5135
CCCn1c(C)cc(C=C(C#N)C(=O)Nc2cccc(F)c2)c1C [8-L19, 2-cyano-3-(2,5-dimethyl-1-propyl-1H-pyrrol-3-yl)-N-(3-fluorophenyl)prop-2-enamide] | 95.6017
CN1c2ccccc2C(NC(=O)CCl)CS1(=O)=O (stereo not drawn) [7-L04, 2-chloro-N-(1-methyl-2,2-dioxo-3,4-dihydro-1H-2lambda6,1-benzothiazin-4-yl)acetamide] | 102.983
N#CC(=Cc1cccc(Cl)c1Cl)C(=O)NCc1ccccc1 [8-L04, N-benzyl-2-cyano-3-(2,3-dichlorophenyl)prop-2-enamide] | -0.332
Cc1cc(C(=O)C(C)Cl)c(C)n1-c1ccc(OC(F)F)cc1 (stereo not drawn) [10-E10, 2-chloro-1-{1-[4-(difluoromethoxy)phenyl]-2,5-dimethyl-1H-pyrrol-3-yl}propan-1-one] | 125.938
Cl.O=C(CCl)NC1CCN(Cc2ccccc2)CC1 [5-E19, N-(1-benzylpiperidin-4-yl)-2-chloroacetamide hydrochloride] | 109.654
CC(Cl)C(=O)NCc1cccc(N2C(=O)NC3(CCCC3)C2=O)c1 (stereo not drawn) [7-O18, 2-chloro-N-[(3-{2,4-dioxo-1,3-diazaspiro[4.4]nonan-3-yl}phenyl)methyl]propanamide] | 103.611
CC(=O)Nc1ccc(C=C(C#N)C(=O)Nc2ccccc2Cl)cc1 [8-M11, N-(2-chlorophenyl)-2-cyano-3-(4-acetamidophenyl)prop-2-enamide] | 90.2905
C=CC(=O)NCc1ccc(C(=O)N2CCC[C@@H]2C(N)=O)cc1 [3-L22, (2R)-1-{4-[(prop-2-enamido)methyl]benzoyl}pyrrolidine-2-carboxamide] | 98.2151
C=CC(=O)NCc1cc(C2CC2)nn1C [1-L10, N-[(3-cyclopropyl-1-methyl-1H-pyrazol-5-yl)methyl]prop-2-enamide] | 79.8242
CC(Cl)C(=O)NC(C)c1nnc(-c2cccc(F)c2)s1 (stereo not drawn) [5-N15, 2-chloro-N-{1-[5-(3-fluorophenyl)-1,3,4-thiadiazol-2-yl]ethyl}propanamide] | 108.561

From publication PMC11995724, “Antibiotic target discovery by integrated phenotypic and activity-based profiling of electrophilic fragments” (Cell chemical biology, 2025)
